The whole screen tested about 150,000 compounds, of which about 540 (0.36%) showed an effect of 50% or more. The list shows a part of the results.

The assay concerns Plasmodium falciparum. Kind of assay: Primary screen in NF54 nanoGlo assay, in single point, at 2uM, 72h; a lower Z score goes with more inhibition. Type of assay: functional, Erythrocyte. To be noted: timepoint 72 hour.
A word on the % Inhibition: it is the change of the read-out against control, counted positive when it falls. Consider `Cc1nc(CN(C)C(=O)[C@@H]2CCC[C@H](O)C2)no1`, for which the “% Inhibition” value is recorded as -19% and the Z score was found to be 2.51.
As to `CC[C@H]1c2cccn2CCN1C(=O)CCc1c(C)nn(C)c1C`, the “% Inhibition” value is -9% and the Z score is on record as 1.64.
Take `CCCC1CC(C(=O)N2CC(C)OC(CO)C2)CCO1` (stereo unspecified): the “% Inhibition” value is reported as 2% and the Z score is recorded as -0.28.
For the compound `CC(=O)C(C(C)=O)=C(N)NC(=O)c1ccccc1`, the “% Inhibition” value is given as -13% and the Z score is 1.41.
For `O=C(N[C@H]1CCO[C@@H]1c1ccnn1-c1ccccc1)C1CC=CC1`, in that order: -2% and 0.26.
On to `COC(=O)C[C@H](C)NC(=O)Cn1ncc(=O)c2ccccc21`, for which the “% Inhibition” value worked out at 14% and the Z score is reported as -1.58.
For `COCCOc1cccc(C(=O)N2CCC[C@H]2c2nc(-c3ccccc3)n[nH]2)c1`, the “% Inhibition” value is -3% and the Z score is reported as 0.42.
As to `COc1cc(C(=O)NCCc2cnn(C)c2)nc(OC)n1`, the “% Inhibition” value was determined as 8% and the Z score is -1.69.
For `O=C(CCc1ccc(O)cc1)NCc1cc2n(n1)CCN(C1CCCCC1)C2`, the “% Inhibition” value is given as 6% and the Z score is listed as -1.1.
With `CCCc1nc(CN2CCc3ccc(F)cc3C2)no1`, the “% Inhibition” value is recorded as -4% and the Z score came to 0.53.
As to `COc1ncccc1CNC(=O)C(=O)N1CCOCC1CC(C)O` (stereo unspecified), the “% Inhibition” value is on record as 0% and the Z score is -0.07.
On to `O=C(CN1CCN(C(=O)c2ccccc2OC(F)F)CC1)NC1CCCC1`, for which the “% Inhibition” value was -2% and the Z score stood at 0.35.
Turning to `CCc1cc(N2CCN(C(=O)c3cc(OC)cc(OC)c3)CC2)nc2nncn12`, the “% Inhibition” value was found to be 6% and the Z score is on record as -0.85.
On the same counts, the results for `COc1ccc(-c2n[nH]c(C3CC3)c2NC(=O)Nc2ccccc2F)c(OC)c1` are -2% and 0.32.
Consider `Cc1ccc(-c2nc(CN(Cc3nccn3C)C(C)C)c(C)o2)cc1`, for which the “% Inhibition” value is -7% and the Z score turned out to be 1.14.
In the case of `CC(C)(CO)[C@H](CNC(=O)c1nc2cccnc2s1)c1ccccc1`, the “% Inhibition” value was -2% and the Z score is listed as 0.27.
On the same counts, the results for `O=C(CCCc1ccccc1)Nc1ccc2c(c1)OCO2` are 3% and -0.45.
For `Cc1n[nH]c(C)c1C(=O)N[C@H]1CCc2n[nH]c(=O)cc2C1`, the “% Inhibition” value was -9% and the Z score worked out at 1.48.
For the compound `Cc1ccccc1NC(=O)[C@H](C)N1CCC(C)(CN2CCOCC2)CC1`, the “% Inhibition” value is recorded as -10% and the Z score came to 1.9.
For `c1cc(CN[C@H]2CCc3ncnn3C2)c2[nH]ccc2c1`, the “% Inhibition” value is on record as 1% and the Z score is -0.25.
As for `CC(NC(=O)C1CCN(C)C(=O)C1)c1ccc(F)cc1F` (stereo unspecified), the “% Inhibition” value is given as -4% and the Z score worked out at 0.42.
Turning to `CCOC(=O)[C@](C)(C#N)c1ncccc1Cl`, the “% Inhibition” value was determined as 0% and the Z score is reported as -0.07.
Regarding `CC(C)(O)CN1CCCN(C(=O)[C@@]2(C)CC2(Cl)Cl)CC1`, the “% Inhibition” value was 1% and the Z score is -0.12.
As for `COC(=O)CNC(=O)N1CCC2(CC1)CN(c1cccc(F)c1)[C@@H]2c1ccccc1`, the “% Inhibition” value was 0% and the Z score is given as 0.
For the compound `O=C(NCCc1cccs1)c1ccc(S(=O)(=O)N2CCOCC2)cc1`, the “% Inhibition” value was -9% and the Z score was 1.57.
Take `O=C(NC(c1ccc(F)cc1F)[C@H]1C[C@H](O)C1)c1cc(Cl)c[nH]c1=O` (stereo partly specified): the “% Inhibition” value was determined as 14% and the Z score was -1.88.
For `C#CCN[C@@H](CC(N)=O)C1CCCCC1`, the “% Inhibition” value is -10% and the Z score came to 2.
In the case of `COc1ccc(NC(=O)c2sc3nccc(=O)n3c2C(=O)O)cc1`, the “% Inhibition” value is recorded as -28% and the Z score came to 3.74.
Take `Cc1cccc(N2CCN(c3cccc(C)c3)C2c2cccnc2)c1`: the “% Inhibition” value is given as -7% and the Z score is given as 0.92.
For `COc1nccnc1-c1cc(O)cc(CC[C@H]2CCCCN2)c1`, the “% Inhibition” value was -23% and the Z score was determined as 3.42.
Take `O=C(N[C@H](C(=O)c1ccccc1)N1CCOCC1)c1ccco1`: the “% Inhibition” value is 0% and the Z score is given as 0.03.
`C[C@@H](C1CC1)N(C)S(=O)(=O)c1ccc2c(c1)NC(=O)CO2`: the “% Inhibition” value was -12% and the Z score amounted to 1.11.
As for `Cc1cccc(Cn2c(-c3[nH]cnc3C)n[nH]c2=O)c1`, the “% Inhibition” value is listed as -6% and the Z score was 1.16.
`CC(C)CCNC(=O)C1CN(C(=O)c2ccc3c(c2)OCO3)CC1c1ccc(F)cc1` (stereo unspecified): the “% Inhibition” value was 7% and the Z score was -0.84.
As to `OCc1cc2n(n1)CCN(c1ncc(C(F)(F)F)cc1Cl)C2`, the “% Inhibition” value is listed as -23% and the Z score stood at 2.3.
For the compound `Cn1cccc1CNC1CCCCCC1C(N)=O` (stereo unspecified), the “% Inhibition” value came to 36% and the Z score is -4.91.
As for `Cc1noc(C)c1S(=O)(=O)Nc1ccccc1C(=O)NCc1ccco1`, the “% Inhibition” value is listed as 0% and the Z score was -0.04.
For `COC(=O)CN1CCCN(Cc2cnc(C(C)(C)C)s2)CC1`, in that order: 0% and 0.01.
Consider `CC(NC(=O)NCC1CCCO1)C(C)(C)C` (stereo unspecified), for which the “% Inhibition” value is recorded as -15% and the Z score stood at 2.38.
With `Cn1nccc1CC(=O)N1CCOC[C@H]1C1CCC1`, the “% Inhibition” value was -7% and the Z score worked out at 1.31.
Turning to `COCc1nc(C)c(C(=O)OCC#Cc2ccccn2)s1`, the “% Inhibition” value is recorded as -6% and the Z score was determined as 1.15.
For `O=C(C1CC2C=CC1C2)N1CCc2ccccc2C1` (stereo unspecified), in that order: -18% and 2.11.
On to `CC1(C(=O)N[C@H]2CCn3ccnc32)COC1`, for which the “% Inhibition” value is reported as -19% and the Z score came out at 2.

Values taken from ChEMBL document CHEMBL4888484, “Replenishing the malaria drug discovery pipeline: Screening and hit evaluation of the MMV Hit Generation Library 1 (HGL1) against asexual blood stage Plasmodium falciparum ,using a nano luciferase reporter read-out” (2022).
